Reference: patent publication US20260258107A1 (ELPISCIENCE SUZHOU BIOPHARMA, published 2026)
Read-outs that look alike come from different tables or passages of the source.

Experiments:
[1] = target: T1, HIS-tagged human IL-2Rβγ heterodimer (human, UniProt P14784 27-239; P31785 23-262, limits assumed); test: BLI (Octet Red 96), variant-Fc on AHC sensor, HIS-tagged IL-2Rβγ heterodimer as analyte, 1:1 fit
T1 construct: Analyte in solution in BLI; HIS-tagged; also called CD122/CD132
T1 sequence (looked up) 1: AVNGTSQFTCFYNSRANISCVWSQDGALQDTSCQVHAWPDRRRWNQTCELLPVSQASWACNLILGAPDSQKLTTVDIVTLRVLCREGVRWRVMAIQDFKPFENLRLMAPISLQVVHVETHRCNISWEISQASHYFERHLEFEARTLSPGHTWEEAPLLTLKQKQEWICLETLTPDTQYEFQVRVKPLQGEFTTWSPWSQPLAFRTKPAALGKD
T1 sequence (looked up) 2: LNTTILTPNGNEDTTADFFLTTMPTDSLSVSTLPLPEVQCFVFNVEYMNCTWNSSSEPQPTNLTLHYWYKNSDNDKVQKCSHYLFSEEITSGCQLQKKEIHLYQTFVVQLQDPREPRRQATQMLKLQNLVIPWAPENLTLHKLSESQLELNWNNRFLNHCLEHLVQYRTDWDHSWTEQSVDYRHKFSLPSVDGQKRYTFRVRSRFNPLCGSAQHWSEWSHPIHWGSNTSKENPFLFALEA
Description: (§1) The affinity of the IL2 variants to the IL-2Rβγheterodimer and the IL-2Rα-subunit was determined by Bio-Layer Interferometry (BLI) technology (Octet Red 96 system). Briefly, the IL2 variants with a concentration of 50 nM were loaded and immobilized on an AHC (Anti-hIgG Fc Capture) sensor until the signal reached 0.6 nm. The sensors were immersed in buffer until the signal returned to baseline. Subsequently, either the HIS-tagged human IL-2R a-subunit or the HIS-tagged human IL-2Rβγheterodimer was applied to the sensors as analytes at 30° C. in kinetics buffer (PALL, USA) in concentrations ranging from 100 nM down to 3.125 nM (1:2 dilution). The following conditions were applied: 90 s for association 300 s for dissociation and 6×5 s for regeneration with regeneration solution (10 mM Glycine, pH 1.5). The curves obtained were fitted with a 1:1 binding model.

[2] = target: T2, HIS-tagged human IL-2R α-subunit (human, UniProt P01589 22-213, limits assumed); test: BLI (Octet Red 96), variant-Fc on AHC sensor, HIS-tagged IL-2Rα as analyte, 1:1 fit
T2 construct: Analyte in solution in BLI; also called CD25; not shown: HIS tag
T2 sequence (looked up): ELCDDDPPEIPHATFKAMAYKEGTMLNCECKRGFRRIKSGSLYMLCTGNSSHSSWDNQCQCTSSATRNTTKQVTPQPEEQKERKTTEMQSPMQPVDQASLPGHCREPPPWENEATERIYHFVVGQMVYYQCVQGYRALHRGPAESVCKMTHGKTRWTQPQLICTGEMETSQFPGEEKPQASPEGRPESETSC
Description: as §1

[3] = target: T1, HIS-tagged human IL-2Rβγ heterodimer; test: BLI (Octet Red 96), variant-Fc on AHC sensor, HIS-tagged IL-2Rβγ heterodimer as analyte, 1:1 fit; remark: listed apart in the source
Description: as §1

B1: IL[…]V fused to human IgG1-LALA Fc (Fc fusion)
chain: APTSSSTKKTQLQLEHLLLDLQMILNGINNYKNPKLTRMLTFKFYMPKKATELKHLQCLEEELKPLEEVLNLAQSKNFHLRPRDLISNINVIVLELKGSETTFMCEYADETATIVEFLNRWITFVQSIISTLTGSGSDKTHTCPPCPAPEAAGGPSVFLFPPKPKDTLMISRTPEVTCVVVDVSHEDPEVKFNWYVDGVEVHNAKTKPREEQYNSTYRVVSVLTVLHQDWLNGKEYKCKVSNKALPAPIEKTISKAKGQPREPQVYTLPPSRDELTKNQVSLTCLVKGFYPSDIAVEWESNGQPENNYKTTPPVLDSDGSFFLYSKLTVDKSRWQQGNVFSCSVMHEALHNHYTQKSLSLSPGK
notes: Signal peptide (residues 1-20 of the entry) left out
[1]
  Kd: < 1 pM
[2]
  Kd: 36.5 nM
[3]
  Kd: < 1 pM
